PubChem BioAssay (NCATS)
The other results are listed elsewhere or left out. Shown are side measurements of this screen, not its main read-out; they come without a call. The note in brackets gives the kind of curve behind each potency; many fits are weak.

Assay: qHTS drug screen for cell cycle checkpoint inhibitors in PARPi-resistant BRCA-mutant ovarian cancer cell lines. (AID 1963452)
Conditions: PEO1/OlaR viability, CellTiter-Glo luminescence, 96 h
How it was run: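 PEO1, PEO4 and PEO1/OlaR ovarian cancer cells, 600 per well, exposed 96 h at 37C to a dilution series. Viability read by CellTiter-Glo luminescence, normalized to DMSO and empty wells; activity summarized as Z-AUC.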

[1] = measured here: PEO1 parental viability
Tags tell the direction and shape of the fitted curve.

SMILES	AC50 [1]	AC50 (measured here: PEO4 viability)
COC(=O)[C@H]1[C@@H](O)[C@@]2(O)c3c(OC)cc(O[C@@H]4O[C@@H]([C@@H](O)CO)CO[C@H]4OC)cc3O[C@@]2(c2ccc(OC)cc2)[C@@H]1c1ccccc1	17.4 µM [falling, single point]	12.3 µM [falling, partial curve, poor fit]
C=CC(=O)Nc1cccc(Oc2nc(Nc3ccc(N4CCN(C)CC4)c(F)c3)nc3[nH]ccc23)c1	4.9 µM [falling, full curve]	2.45 µM [falling, full curve]
CCCc1cc(C)[nH]c(=O)c1CNC(=O)c1cc(-c2ccc(N3CCN(C(C)C)CC3)nc2)cc2c1cnn2C(C)C	21.9 µM [falling, single point]	13.8 µM [falling, partial curve]
Nc1nccc(-c2c(-c3ccc(F)cc3)ncn2C2CCCCC2)n1	24.5 µM [falling, partial curve, poor fit]	27.5 µM [falling, single point]
CC(C)(O)CCc1ccc(OCc2cc(-c3cccc(OC(F)F)c3)c3ncccc3c2)cc1	15.5 µM [falling, single point]	19.5 µM [falling, single point]
